“And” between values parts separate entries of the source, which are not always exact repeats. Equal entries are not always repeated. About 64,000 (15%) of roughly 420,000 compounds were called active. The shares of active, inactive and inconclusive entries below differ from those in the screen. Calls come from the whole dose curve; as a rule, active = well fitted inhibition curve with a large enough effect; inconclusive = small, poorly fitted or top-dose-only effect; inactive = flat fitted curve, though single readings scatter. A potency beside an inconclusive call is a rough fit, not a confirmed value.
Assay: qHTS for Inhibitors of human tyrosyl-DNA phosphodiesterase 1 (TDP1): qHTS in cells in absence of CPT; note: nearly all actives have a fitted effect of over 55% in size
Conditions: DT40 Tdp1-/- hTDP1 cells, no CPT, ATP luminescence, 48 h; activity change, negative = growth inhibition: at 46.2 µM (top of the series) unless noted
In short: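 Seeded 400 DT40-hTDP1 cells/well (vehicle DMSO, no 20 nM CPT); pinned compounds; ≥48 hr at 37 °C; CellTiter-Glo luminescence as viability measure.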
% is set by controls: 0 for no effect and ±100 for the full control effect; potency is the fitted concentration of half-maximal effect; tags give direction and shape of the fitted curve.

Compound | activity change, negative = growth inhibition | Potency
O=C(CSc1ccccc1)Nc1nccs1 | inactive: -15.2% | 
Cc1nc(-c2ccc(F)cc2)sc1CCNC(=O)c1ccccc1C(F)(F)F |  | inconclusive: 16.4 µM [inhibitor, single point]
CCCCN1C=C(C(=O)OC)C(c2ccccc2Cl)C(C(=O)OC)=C1 |  | inconclusive: 29.1 µM [inhibitor, partial curve, poor fit]
CN(C)C(=S)NC(=O)C(c1ccccc1)c1ccccc1 |  | inconclusive: 29.1 µM [inhibitor, single point]
O=C1N/C(=C/c2cccs2)C(=O)N1Cc1ccccc1F |  | inconclusive: 0.92 µM [inhibitor, partial curve, poor fit]
O=C1c2ccccc2C(=O)N1CSc1nnc2c3ccccc3n(CCc3ccccc3)c2n1 |  | active: 20.6 µM
Cc1ccc(-c2c[nH]c(=S)n2-c2ccccc2F)cc1 |  | active: 23.1 µM
N#Cc1c(N)c(C(=O)c2ccc(Br)cc2)n2c1CCC2 |  | inconclusive: 11.6 µM [inhibitor, partial curve]
O=[N+]([O-])c1cc(Cl)c(Cl)c(Cl)c1Cl |  | inconclusive: 2.59 µM [inhibitor, full curve, poor fit]
CC(=O)N1c2ccc(S(=O)(=O)N3CCCC(C(=O)Nc4ccc(C)cc4C)C3)cc2CC1C (stereo not drawn) |  | inconclusive: 23.1 µM [inhibitor, single point]
CN(C(=O)CSc1nnc(N)s1)C1CCCCC1 | inactive: 27.1% | 
COc1ccc(Cc2nnc(SC(C)C(=O)Nc3ccc(F)cc3Cl)o2)cc1 (stereo not drawn) | inactive: 1.88% | 
COc1ccc(S(=O)(=O)Cc2ccc(C(=O)NCc3ccccc3OC)o2)cc1 | inactive: -23.7% | 
Cc1cc(C(=O)Nc2nnc(C3CC3)s2)c(C)s1 | inactive: 14.9% | 
O=C(NCc1ccccc1)C(c1ccc(Cl)cc1)N(C(=O)c1csnn1)C1CC1 (stereo not drawn) | inactive: -10.6% | 
O=C1CSC(=S)N1c1ccc(O)cc1 |  | inconclusive: 29.1 µM [inhibitor, single point]
CC(=O)c1ccc(C(=O)NCc2nc(-c3ccccc3NC(=O)c3cc(C)oc3C)oc2C)cc1 | inactive: -6.75% | 
Cc1cc(C)c(Cn2cnc(-c3ccc([N+](=O)[O-])cc3)c2)c(C)c1 |  | active: 14.6 µM
CC(C)C(C(=O)NCC1CCCO1)N(C(=O)CNS(=O)(=O)c1ccccc1)C1CCCCC1 (stereo not drawn) | inactive: -0.871% | 
CCOC(=O)N1CCN(C(=O)CN(C)S(=O)(=O)c2ccc(F)cc2)CC1 | inactive: 9.39% | 
Cc1ccc(S(=O)(=O)CC(c2ccccc2)N2CCCCC2)cc1 (stereo not drawn) |  | inconclusive: 18.4 µM [inhibitor, single point]
Cn1cccc1C(=O)OCC(=O)c1ccc(Br)s1 |  | inconclusive: 29.1 µM [inhibitor, single point]
O=C(NC1CCCCC1)NS(=O)(=O)c1ccc2c(c1)CCC2 | inactive: -17.5% | 
O=C(Oc1ccc(-c2nnco2)cc1)N(c1ccccc1)c1ccccc1 |  | inconclusive: 11.6 µM [inhibitor, partial curve]
O=C(NNC(=O)c1ccccc1[N+](=O)[O-])c1ccco1 | inactive: -14.2% | 

Compound | activity change, negative = growth inhibition | Potency
CC(=O)NCCc1c(Cc2ccccc2)[nH]c2ccccc12 |  | inconclusive: 29.9 µM [inhibitor, partial curve, poor fit]
COc1ccccc1NC(=O)CN1C(=O)C(C)(C)c2ccccc21 | inactive: -26.9% | 
O=C(CSc1nc2ccccc2[nH]1)Nc1ccc2c(c1)CCC2 |  | inconclusive: 29.1 µM [inhibitor, single point]
Cc1cc(Br)ccc1NC(=O)CN(C)C(=O)c1cc(S(=O)(=O)N(C)C)ccc1N1CCCC1 |  | inconclusive: 29.1 µM [inhibitor, single point]
O=C1COc2ccc(C(=O)COC(=O)/C=C/c3ccc(Br)o3)cc2N1 | inactive: -25.5% | 
C#CCOCCOCCOCCNc1nc(N2CCN(C(=O)[C@H](CCC(=O)O)n3cc(C(N)Cc4ccc(O)cc4)nn3)CC2)nc(N2CCN(C(=O)[C@H](CCC(=O)O)n3cc(C(N)CC(C)C)nn3)CC2)n1 (stereo partly drawn) |  | inconclusive: 18.4 µM [inhibitor, single point]
Cc1c(Cl)cccc1NC(=O)CNC(=O)c1cn(-c2ccccc2)nc1-c1cccnc1 |  | inconclusive: 20.6 µM [inhibitor, single point]
Cn1c(C(=O)NC2CC2)cc2c(=O)n(C)c3ccccc3c21 |  | inconclusive: 16.4 µM [inhibitor, single point]
CC1=C(C(=O)Nc2ccccc2C)C(c2sccc2C)n2ncnc2N1 (stereo not drawn) | inactive: -0.242% | 
O=C(O)c1ccccc1Nc1cccc(OCc2ccc3ccccc3n2)c1 |  | inactive and inconclusive: 21.1 µM [inhibitor, partial curve]
CCOc1ccc(NS(=O)(=O)c2ccc(C(=O)N3CCN(c4ncccn4)CC3)cc2)cc1 |  | active: 8.2 µM
CC1=C(C(=O)OCC2CCCO2)C(c2coc3ccccc3c2=O)C2=C(CCCC2=O)N1 (stereo not drawn) | inactive: -20.8% | 
Cc1ccc(/C=C/c2onc(C)c2S(=O)(=O)N2CCC(C(=O)Nc3cccc(C#N)c3)CC2)cc1 |  | active: 3.66 µM
COP(=O)(OC)c1nc(-c2ccc(C)cc2)oc1N1CCCCC1 |  | active: 14.6 µM
CCN(CC)CCNC(=O)CN1C(=O)CSc2ccc(S(=O)(=O)N3CCOCC3)cc21 |  | inactive
COc1ccc(CN(C)C(=O)C2CSC3(C)CCC(=O)N23)c(OC)c1 (stereo not drawn) |  | active: 14.6 µM
CCOC(=O)c1c(NC(=O)CSc2nnc(-c3ccc(OC)cc3)o2)sc2c1CCC2 |  | inconclusive: 29.1 µM [inhibitor, single point]
CCOC(=O)COc1ccc(CC)cc1C(=O)c1ccn2nc(-c3ccc(C)cc3)cc2n1 |  | inconclusive: 29.1 µM [inhibitor, single point]
Cc1cccc(NC(=O)/C(=C\c2ccc([N+](=O)[O-])o2)NC(=O)c2ccc(Cl)cc2)c1 |  | inconclusive: 29.1 µM [inhibitor, single point]
O=C(NCCCN1CCN(c2ccccc2F)CC1)c1ccc2nc(Cc3ccccc3)oc2c1 |  | active: 25.9 µM
O=C(NC(=S)NCC1CCCO1)c1ccccc1[N+](=O)[O-] (stereo not drawn) | inactive: -7.08% | 
CCOc1ccc(-c2cc(NC(=O)Nc3ccccc3Cl)c(C(=O)OC)s2)cc1 |  | inconclusive: 29.1 µM [inhibitor, single point]
OC(COc1c(F)cc(Br)cc1F)CN1CCc2ccccc2C1 (stereo not drawn) |  | inconclusive: 29.1 µM [inhibitor, single point]
N#Cc1c(C(F)(F)F)cc(-c2cccs2)nc1SCC(=O)Nc1cccc(Br)c1 | inactive: -37.3% | 
Cc1ccc(C(=O)N2CCN(c3ccccc3)CC2)cc1NC(=O)c1nsc2ccccc12 |  | inconclusive: 29.1 µM [inhibitor, single point]

Compound | activity change, negative = growth inhibition | Potency
Cc1onc(-c2c(F)cccc2Cl)c1C(=O)OCC(=O)c1c[nH]c2ccccc12 |  | active: 18.4 µM
CO/N=C/CC(=O)c1ccc(-c2ccccc2)cc1 |  | inconclusive: 29.1 µM [inhibitor, single point]
CCOc1ccccc1OCCC(=O)OCC(=O)Nc1c(C)nn(-c2ccccc2)c1C | inactive: -9.68% | 
Cc1ccc(-c2nnc(Nc3ccc(F)cc3)c3ccccc23)cc1S(=O)(=O)NC(C)C |  | active: 9.2 µM
CCC(c1nnnn1Cc1ccccc1)N1CCN(c2ccccc2)CC1 (stereo not drawn) |  | inconclusive: 20.6 µM [inhibitor, single point]
O=C(Nc1nnc(C2=COCCO2)o1)c1ccc(S(=O)(=O)N2CCCC2)cc1 |  | inconclusive: 9.2 µM [inhibitor, partial curve]
Cn1c(=O)c2c(nc(SCCN3CCOCC3)n2Cc2ccc(F)cc2)n(C)c1=O | inactive: -19.9% | 
C(=C\c1ccccc1)/CN1CCN(C(c2cccc3ccccc23)c2nnnn2-c2ccc3c(c2)OCCO3)CC1 (stereo not drawn) |  | active: 8.2 µM
CCc1nnc2c(NCc3ccccc3)nc3ccccc3n12 | inactive: -17.6% | 
COCCNc1ncncc1-c1c(C)noc1C | inactive: -3.64% | 
CN=c1scc(-c2cc(OC)ccc2OC)n1/N=C/c1c(C)[nH]c2ccccc12 |  | active: 16.4 µM
CC(C)CC[C@@H](O)[C@](C)(O)C1CC[C@@]2(O)C3=CC(=O)[C@@H]4C[C@@H](O)[C@@H](O)C[C@]4(C)C3CC[C@]12C (stereo partly drawn) | inactive: -10.9% | 
CCN(CC)S(=O)(=O)c1ccc2c(c1)c(=O)c(C(=O)N1CCN(c3ccc(OC)cc3)CC1)cn2C | inconclusive: -32.4% [inhibitor] | 
COCCCn1c(=O)c2sccc2n(Cc2cccc(C)c2)c1=O |  | inconclusive: 29.1 µM [inhibitor, single point]
CCC1(CC)NC(=O)N(CC(=O)OCC(=O)Nc2ccc(F)c(F)c2F)C1=O | inactive: -4.52% | 
CCCc1nc2ccccc2c(=O)n1/N=C/c1ccccc1O | inactive: -22.2% | 
CC(C)c1ccc(NC(=O)C2CCCN(S(=O)(=O)c3ccc4[nH]c(=O)oc4c3)C2)cc1 (stereo not drawn) |  | inconclusive: 29.1 µM [inhibitor, single point]
COc1cccc(-c2nn(-c3ccccc3)cc2C(=O)OCC(=O)Nc2ncc(Cl)cc2Cl)c1 |  | inconclusive: 16.4 µM [inhibitor, partial curve]
CC(C)N1CCC(N2CCN(C/C=C/c3ccc(F)cc3)CC2CCO)CC1 (stereo not drawn) |  | inconclusive: 29.1 µM [inhibitor, single point]
O=C(NCc1ccco1)C1CCCN(c2nnc(-n3cccc3)s2)C1 (stereo not drawn) | inactive: 3.25% | 
O=C(NCCc1ccc(Cl)cc1)C1CCC(=O)N1Cc1ccc(F)cc1 (stereo not drawn) | inactive: -15.6% | 
Cc1ccc(C(=O)N2CCCC(Nc3ccc(C(C)C)cc3)C2)cn1 (stereo not drawn) | inactive: -25.5% | 
Cc1ccc(S(=O)(=O)N2CCN(CC(=O)Nc3ccccc3C(=O)NC3CC3)CC2)cc1 |  | inconclusive: 29.1 µM [inhibitor, single point]
